Assay results: publication PMC9911399, “Two distinct binding modes provide the RNA-binding protein RbFox with extraordinary sequence specificity”
Numbering of substitutions follows the chain as printed; changes in the protein carry UniProt numbers. The list shows a part of the results.

T1: RBFOX1 RRM RbFoxmut (Fox-RRM*) (Homo sapiens, UniProt Q9NWB1 109-208, R118D;E147R;N151S;E152T)
T1 sequence: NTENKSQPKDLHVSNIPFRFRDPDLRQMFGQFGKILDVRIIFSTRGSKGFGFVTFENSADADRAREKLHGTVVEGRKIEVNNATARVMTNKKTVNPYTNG

B1: AGGUAUA (DNA:RNA)
RNA: GGGAGACCGGAAUUCAGAUUGUCCAGGUAUAUUAAAUCCCGUCGUAGCCACCA
DNA 1: CAATCTGAATTCCGGTCTCCC
DNA 2: TGGTGGCTACGACGGGATT
B2: AAAGAGA (DNA:RNA)
RNA: B1 RNA with G26A, G27A, U28G, U30G
DNA 1: CAATCTGAATTCCGGTCTCCC
DNA 2: TGGTGGCTACGACGGGATT
B3: GCAAAAA (DNA:RNA)
RNA: B1 RNA with A25G, G26C, G27A, U28A, U30A
DNA 1: CAATCTGAATTCCGGTCTCCC
DNA 2: TGGTGGCTACGACGGGATT
B4: AAUAUUA (DNA:RNA)
RNA: B1 RNA with G26A, G27U, U28A, A29U
DNA 1: CAATCTGAATTCCGGTCTCCC
DNA 2: TGGTGGCTACGACGGGATT
B5: CAGUGCU (DNA:RNA)
RNA: B1 RNA with A25C, G26A, A29G, U30C, A31U
DNA 1: CAATCTGAATTCCGGTCTCCC
DNA 2: TGGTGGCTACGACGGGATT
B6: CCGGGUA (DNA:RNA)
RNA: B1 RNA with A25C, G26C, U28G, A29G
DNA 1: CAATCTGAATTCCGGTCTCCC
DNA 2: TGGTGGCTACGACGGGATT
B7: GACGAUU (DNA:RNA)
RNA: B1 RNA with A25G, G26A, G27C, U28G, A31U
DNA 1: CAATCTGAATTCCGGTCTCCC
DNA 2: TGGTGGCTACGACGGGATT
B8: AUGUUCC (DNA:RNA)
RNA: B1 RNA with G26U, A29U, U30C, A31C
DNA 1: CAATCTGAATTCCGGTCTCCC
DNA 2: TGGTGGCTACGACGGGATT
B9: ACAUGAG (DNA:RNA)
RNA: B1 RNA with G26C, G27A, A29G, U30A, A31G
DNA 1: CAATCTGAATTCCGGTCTCCC
DNA 2: TGGTGGCTACGACGGGATT
B10: AAUAAAU (DNA:RNA)
RNA: B1 RNA with G26A, G27U, U28A, U30A, A31U
DNA 1: CAATCTGAATTCCGGTCTCCC
DNA 2: TGGTGGCTACGACGGGATT
B11: GAGGUGG (DNA:RNA)
RNA: B1 RNA with A25G, G26A, U28G, A29U, U30G, A31G
DNA 1: CAATCTGAATTCCGGTCTCCC
DNA 2: TGGTGGCTACGACGGGATT
B12: ACUGCAU (DNA:RNA)
RNA: B1 RNA with G26C, G27U, U28G, A29C, U30A, A31U
DNA 1: CAATCTGAATTCCGGTCTCCC
DNA 2: TGGTGGCTACGACGGGATT
B13: AUAAAGU (DNA:RNA)
RNA: B1 RNA with G26U, G27A, U28A, U30G, A31U
DNA 1: CAATCTGAATTCCGGTCTCCC
DNA 2: TGGTGGCTACGACGGGATT
B14: UCACCUG (DNA:RNA)
RNA: B1 RNA with A25U, G26C, G27A, U28C, A29C, A31G
DNA 1: CAATCTGAATTCCGGTCTCCC
DNA 2: TGGTGGCTACGACGGGATT
B15: CAGCGCG (DNA:RNA)
RNA: B1 RNA with A25C, G26A, U28C, A29G, U30C, A31G
DNA 1: CAATCTGAATTCCGGTCTCCC
DNA 2: TGGTGGCTACGACGGGATT
B16: GUCGCAU (DNA:RNA)
RNA: GGGAGACCGGAAUUCAGAUUGUCCGUCGCAUUUAAAUCCCGUCGUAGCCACCA
DNA 1: CAATCTGAATTCCGGTCTCCC
DNA 2: TGGTGGCTACGACGGGATT
B17: AGCCUCA (DNA:RNA)
RNA: B1 RNA with G27C, U28C, A29U, U30C
DNA 1: CAATCTGAATTCCGGTCTCCC
DNA 2: TGGTGGCTACGACGGGATT
B18: GGCAGUU (DNA:RNA)
RNA: B16 RNA with U26G, G28A, C29G, A30U
DNA 1: CAATCTGAATTCCGGTCTCCC
DNA 2: TGGTGGCTACGACGGGATT
B19: AAGUUCU (DNA:RNA)
RNA: B1 RNA with G26A, A29U, U30C, A31U
DNA 1: CAATCTGAATTCCGGTCTCCC
DNA 2: TGGTGGCTACGACGGGATT
B20: ACACUCA (DNA:RNA)
RNA: B1 RNA with G26C, G27A, U28C, A29U, U30C
DNA 1: CAATCTGAATTCCGGTCTCCC
DNA 2: TGGTGGCTACGACGGGATT
B21: AAGAUGU (DNA:RNA)
RNA: B1 RNA with G26A, U28A, A29U, U30G, A31U
DNA 1: CAATCTGAATTCCGGTCTCCC
DNA 2: TGGTGGCTACGACGGGATT
B22: ACGCUUU (DNA:RNA)
RNA: B1 RNA with G26C, U28C, A29U, A31U
DNA 1: CAATCTGAATTCCGGTCTCCC
DNA 2: TGGTGGCTACGACGGGATT
B23: CGCACCC (DNA:RNA)
RNA: B16 RNA with G25C, U26G, G28A, A30C, U31C
DNA 1: CAATCTGAATTCCGGTCTCCC
DNA 2: TGGTGGCTACGACGGGATT
B24: UUCCCUG (DNA:RNA)
RNA: B16 RNA with G25U, G28C, A30U, U31G
DNA 1: CAATCTGAATTCCGGTCTCCC
DNA 2: TGGTGGCTACGACGGGATT
B25: AGAAUGG (DNA:RNA)
RNA: B1 RNA with G27A, U28A, A29U, U30G, A31G
DNA 1: CAATCTGAATTCCGGTCTCCC
DNA 2: TGGTGGCTACGACGGGATT
B26: ACAGGUC (DNA:RNA)
RNA: B1 RNA with G26C, G27A, U28G, A29G, A31C
DNA 1: CAATCTGAATTCCGGTCTCCC
DNA 2: TGGTGGCTACGACGGGATT
B27: AAUCAAG (DNA:RNA)
RNA: B1 RNA with G26A, G27U, U28C, U30A, A31G
DNA 1: CAATCTGAATTCCGGTCTCCC
DNA 2: TGGTGGCTACGACGGGATT
B28: AUGGAUA (DNA:RNA)
RNA: B1 RNA with G26U, U28G
DNA 1: CAATCTGAATTCCGGTCTCCC
DNA 2: TGGTGGCTACGACGGGATT
B29: UCAUGGU (DNA:RNA)
RNA: B1 RNA with A25U, G26C, G27A, A29G, U30G, A31U
DNA 1: CAATCTGAATTCCGGTCTCCC
DNA 2: TGGTGGCTACGACGGGATT
B30: GCAUCCA (DNA:RNA)
RNA: B1 RNA with A25G, G26C, G27A, A29C, U30C
DNA 1: CAATCTGAATTCCGGTCTCCC
DNA 2: TGGTGGCTACGACGGGATT
B31: UUCCAUA (DNA:RNA)
RNA: B1 RNA with A25U, G26U, G27C, U28C
DNA 1: CAATCTGAATTCCGGTCTCCC
DNA 2: TGGTGGCTACGACGGGATT

molecular target: T1, RBFOX1 RRM RbFoxmut (Fox-RRM*); assay: EMSA; HiTS-Eq, 1 nM pool, 10 min; buffer printed only for the single-RNA assays: 10 mM Tris pH 7.5, 150 mM NaCl, 3.4 mM EDTA, 0.001% NP-40, 30 C; details: tags: His6 N-terminal (pET28a); label: 5' 32P
Method in brief: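 Relative association constants, normalised to the cognate motif, were derived by comparing read counts of each RNA species with those of the control reaction. The RNA sequenced was the free fraction, separated by 8% native PAGE after a 10 min equilibration in 50 µL of 1 nM 5′-radiolabelled RNA (7 randomized nucleotides) with increasing concentrations of purified wild-type or mutant RbFox RRM.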

| Binder | binding signal |
| --- | --- |
| B1 | 0.148 KA relative to UGCAUGU |
| B2 | 0.0972 KA relative to UGCAUGU |
| B3 | 0.0956 KA relative to UGCAUGU |
| B4 | 0.134 KA relative to UGCAUGU |
| B5 | 0.113 KA relative to UGCAUGU |
| B6 | 0.146 KA relative to UGCAUGU |
| B7 | 0.063 KA relative to UGCAUGU |
| B8 | 0.091 KA relative to UGCAUGU |
| B9 | 0.117 KA relative to UGCAUGU |
| B10 | 0.0355 KA relative to UGCAUGU |
| B11 | 0.0993 KA relative to UGCAUGU |
| B12 | 0.13 KA relative to UGCAUGU |
| B13 | 0.114 KA relative to UGCAUGU |
| B14 | 0.0853 KA relative to UGCAUGU |
| B15 | 0.155 KA relative to UGCAUGU |
| B16 | 0.131 KA relative to UGCAUGU |

| Binder | binding signal |
| --- | --- |
| B17 | 0.103 KA relative to UGCAUGU |
| B18 | 0.0703 KA relative to UGCAUGU |
| B19 | 0.0763 KA relative to UGCAUGU |
| B20 | 0.0689 KA relative to UGCAUGU |
| B21 | 0.113 KA relative to UGCAUGU |
| B22 | 0.1 KA relative to UGCAUGU |
| B23 | 0.0825 KA relative to UGCAUGU |
| B24 | 0.0888 KA relative to UGCAUGU |
| B25 | 0.541 KA relative to UGCAUGU |
| B26 | 0.128 KA relative to UGCAUGU |
| B27 | 0.0698 KA relative to UGCAUGU |
| B28 | 0.135 KA relative to UGCAUGU |
| B29 | 0.143 KA relative to UGCAUGU |
| B30 | 0.338 KA relative to UGCAUGU |
| B31 | 0.129 KA relative to UGCAUGU |
